# Source: PubChem BioAssay AID651820 (National Center for Advancing Translational Sciences (NCATS), 2012)
# The campaign covered roughly 340,000 compounds. About 12,000 (3.5%) were called active. This list was built around the results that the source calls inconclusive (neither active nor inactive); the mix of calls is not that of the screen. Calls follow the shape of the dose curve; as a rule, active = well fitted inhibition curve with a large enough effect; inconclusive = small, poorly fitted or top-dose-only effect, or another doubt; inactive = no such curve, though single readings can be large or run the other way. Potencies of inconclusive entries are left out as doubtful fits.
# Experiment: qHTS Assay for Inhibitors of Hepatitis C Virus (HCV)
# Details: Huh7.5.1 HCVcc-Cre (HCVcc is cell-culture hepatitis C virus) infection, luciferase reporter, 44 h; series mostly up to 41.8 µM
# How it was run: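 Antiviral activity was scored by luciferase reporter output from cells infected with HCVcc-Cre (~0.5 moi) in presence of compound, 44 h infection period, cells seeded 1,000/well 4 h prior.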
# Potency is read from the fitted curve at half-maximal effect; tags tell the direction and shape of the fitted curve.
row,SMILES,Potency
1,CN(C)CCn1cnc2c(c1=N)C(c1ccccc1)c1ccc3ccccc3c1O2 (configuration not stated),active: 12.6 µM
2,COc1ccc(OCC(=O)Nc2ccccc2-c2ccccc2)cc1,"inconclusive [inhibitor, partial curve]"
3,O=C(Nc1nnc(S(=O)(=O)N2CCOCC2)s1)c1ccccc1Br,inactive
4,COC(=O)c1cc(NC(=S)NC(=O)c2ccccc2)ccc1N1CCOCC1,"inconclusive [inhibitor, partial curve]"
5,N/C(=N\OC(=O)c1cccc2ccccc12)c1cccnc1,active: 11.2 µM
6,Cc1ccc2c(c1)[C@H]1[C@H](CO2)[C@H](c2ccccc2)[C@]2(C)C(=O)Nc3ccc(Br)cc3C(=O)N12,"inconclusive [inhibitor, single point]"
7,CCOc1ncccc1C(=O)NCCc1ccc(Cl)cc1,inactive
8,COc1cccc(NCc2cc(=O)oc3cc(C)c(C(C)C)cc23)c1,active: 10 µM
9,O=C(NN1C(=O)NC2(CCCCC2)C1=O)c1ccc(-c2ccccc2Cl)o1,"inconclusive [inhibitor, single point]"
10,COCC(C)NC(=O)NC1(C(F)(F)F)Oc2ccc(Cl)cc2O1 (configuration not stated),"inconclusive [inhibitor, partial curve, poor fit]"
11,CC(C)(C)NC(=O)C(c1c[nH]c2ccccc12)N(C(=O)Cn1nnc(-c2ccc(F)cc2)n1)c1cccc(O)c1 (configuration not stated),active: 10 µM
12,C=C(C)COc1ccc(-c2nc(N)ncc2-c2ccc(Cl)cc2)c(O)c1,"inconclusive [inhibitor, single point]"
13,O=C(NNC(=O)c1ccccc1-n1cccc1)c1cncc(Br)c1,inactive
14,Cc1cc(S(=O)(=O)NCCCN2CCOCC2)c(C)cc1Cl,inactive
15,COc1ccc(NC(=O)N2CCCCCC2)cc1OC,inactive
16,Cc1ccc(-c2nnc(SCC(=O)Nc3ccccc3N3CCOCC3)o2)cc1,inactive
17,O=C1OC(c2ccc3c(c2)OCO3)N(C(=O)c2ccc(Cl)c(Cl)c2)c2ccccc21 (configuration not stated),"inconclusive [inhibitor, partial curve]"
18,CN(C)CCCN(C(=O)c1ccco1)c1nc2c(F)cc(F)cc2s1,"inconclusive [inhibitor, partial curve]"
19,COc1cccc(C(=O)N/N=C(\C)c2cccc(NC(=O)c3ccc(F)cc3)c2)c1OC,"inconclusive [inhibitor, full curve]"
20,CC(NC(=O)c1ccco1)C(c1cccs1)N1CCN(c2ccc(F)cc2)CC1 (configuration not stated),active: 10 µM
21,O=C(Nc1ccccc1C(=O)NCc1ccco1)c1ccccc1,inactive
22,COc1ccc(CNC(=O)C[C@H]2C[C@H](C(=O)N(C(C)C)C(C)C)[C@@]3(C)c4[nH]c5cc(-c6ccco6)ccc5c4CCN3C2=O)cc1OC,"inconclusive [inhibitor, single point]"
23,O=C(Oc1ccccc1)c1cccc2cccnc12,"inconclusive [inhibitor, partial curve]"

row,SMILES,Potency
1,Cc1cc(S(=O)(=O)Nc2ccc(C(=O)NCCCN3CCCC3=O)cc2)ccc1F,"inconclusive [inhibitor, full curve]"
2,CC1CCC(CN2CCN=C2N(C)C)CC1 (configuration not stated),"inconclusive [inhibitor, single point]"
3,Cc1ccc(NC(=O)COc2ccccc2C(=O)NCc2ccccc2)cc1,"inconclusive [inhibitor, partial curve]"
4,COc1ccc(Cl)cc1NC(=O)COC(=O)CCCN1C(=O)c2ccccc2C1=O,"inconclusive [inhibitor, single point]"
5,O=C(Oc1cccc2cccnc12)c1ccco1,"inconclusive [inhibitor, single point]"
6,COc1cc(NC(=O)c2[nH]cnc2C(N)=O)cc(C(=O)Nc2cccc(C(F)(F)F)c2)c1,"inconclusive [inhibitor, partial curve]"
7,CS(=O)(=O)Nc1ccc(N2CCN(c3ccc(C(F)(F)F)cn3)CC2)nc1,active: 11.2 µM
8,Cc1ccc(NS(=O)(=O)c2cc(C(=O)Nc3cccc([N+](=O)[O-])c3)ccc2C)cc1,"inconclusive [inhibitor, full curve, poor fit]"
9,Cc1sc2ncnc(Sc3ccccc3C(=O)Nc3ccc(Br)cc3)c2c1C,active: 5.62 µM
10,COc1ccc(Nc2n[nH]c(C)c2[N+](=O)[O-])cc1,inactive
11,Cc1cc(C)n(-c2ccc(C(=O)Nc3ccc(S(=O)(=O)NCc4ccco4)cc3)cc2)n1,active: 3.55 µM
12,O=C(/C=C/c1ccccc1)/C=C/c1ccccc1,"inconclusive [inhibitor, partial curve, poor fit]"
13,S=C(Nc1cccc(Cl)c1)Nc1cccc2cnccc12,"inconclusive [inhibitor, partial curve, poor fit]"
14,O=C(Nc1ccc(Cl)c(C(F)(F)F)c1)c1ccco1,"inconclusive [inhibitor, partial curve]"
15,NC(=O)C1CCN(C(=O)c2ccc3c(=O)n(Cc4cccc(Br)c4)c(=S)[nH]c3c2)CC1,"inconclusive [inhibitor, full curve, poor fit]"
16,O=C(Nc1ccc2c(c1)OCO2)O[C@@H]1C[C@H]2CCCC(=O)N3CC[C@@H](C1)[C@@H]23,inactive
17,Cc1cc(NC(=S)NC(=O)c2ccccc2)ccc1-c1cc2ccccc2oc1=O,"inconclusive [inhibitor, partial curve, poor fit]"
18,COc1ccc(-c2nc(CN3CCN(c4cc(C)nc(C)c4)CC3)c(C)o2)c2ccccc12,"inconclusive [inhibitor, partial curve]"
19,Cc1ccc(S(=O)(=O)N2CCC(C(=O)Nc3ccc(C(C)C)cc3)CC2)cc1,active: 11.2 µM
20,CCOC(=O)N1CCC(N(C(=O)Nc2cccc(OC)c2)C(C)CC)CC1 (configuration not stated),"inconclusive [inhibitor, partial curve]"
21,CN(C)CCCN(C(=O)c1ccc([N+](=O)[O-])o1)c1nc2cc3c(cc2s1)OCO3,"inconclusive [inhibitor, single point]"
22,O=C(CN(C(=O)Cn1nnc(-c2ccc(F)cc2)n1)C1CCCC1)NC1CCCC1,"inconclusive [inhibitor, single point]"
23,N#Cc1ccsc1NC(=O)COC(=O)C1=NNC(=O)CC1,inactive

row,SMILES,Potency
1,O=C(c1ccccc1)c1ccc(OCC(O)CNC2CCCc3ccccc32)cc1 (configuration not stated),"inconclusive [inhibitor, partial curve]"
2,CCC(C)(C)C1CCC(=NNc2nc3ccccc3[nH]2)CC1 (configuration not stated),"inconclusive [inhibitor, single point]"
3,COc1cc(/C=C/c2nc3ccccc3s2)cc(OC)c1O,"inconclusive [inhibitor, single point]"
4,CCCN(CC(=O)Nc1ccccc1C)C(=O)CC(NC(=O)c1ccccc1)c1ccccc1 (configuration not stated),inactive
5,O=C(CCN1CCN(c2ccccc2F)CC1)Nc1ccc2c(c1)OCO2,"inconclusive [inhibitor, full curve, poor fit]"
6,COc1cccc(/C=C/C(=O)c2ccc3c(c2)OCO3)c1OC,inactive
7,CCOc1cc(C(=S)N2CCCC2)ccc1OCC(=O)Nc1c(C)cc(C)cc1C,"inconclusive [inhibitor, full curve, poor fit]"
8,O=C(NCC(c1cccs1)N1CCOCC1)c1cnc(Cl)c(Cl)c1 (configuration not stated),"inconclusive [inhibitor, single point]"
9,O=C(Nc1ccc(Cl)cc1)N1CCC(CO)(Cc2ccccc2)CC1,"inconclusive [inhibitor, single point]"
10,O=C(CSc1nnc2ccccn12)Nc1ncc(Cl)cc1Cl,inactive
11,CC1=CCC(C(=O)O)C(C(=O)NC2CCCCC2)C1 (configuration not stated),"inconclusive [inhibitor, single point]"
12,COC(=O)C1=C(CN2CCCc3ccccc32)NC(=O)NC1c1ccc(F)cc1 (configuration not stated),"inconclusive [inhibitor, single point]"
13,COC(=O)c1[nH]c2cc(C)ccc2c1NC(=O)CN1CCN(c2ccccc2OC)CC1,active: 10 µM
14,CCCCC(=O)N/N=C/c1c(O)n(CCC2=CCCCC2)c(=O)[nH]c1=O,"inconclusive [inhibitor, single point]"
15,C=CCN(C(=O)c1oc2c(Cl)cc(C)cc2c1C)C1CCS(=O)(=O)C1 (configuration not stated),"inconclusive [inhibitor, single point]"
16,O=S(=O)(c1cccc(NC(=S)N2CCN(c3cccc(Cl)c3)CC2)c1)C(F)F,"inconclusive [inhibitor, single point]"
17,CC(C(=O)Nc1ccccc1Br)N1c2cccc3cccc(c23)S1(=O)=O (configuration not stated),"inconclusive [inhibitor, single point]"
18,CC(C)CCCCCCNC(=S)Nc1ccc(S(=O)(=O)N2CCOCC2)cc1,"inconclusive [inhibitor, single point]"
19,CC(C)CN(CC(C)C)S(=O)(=O)N1CCC(C(=O)NCc2ccc3c(c2)OCO3)CC1,"inconclusive [inhibitor, partial curve]"
20,CCCc1ccc(S(=O)(=O)N2CCN(C(C)C(=O)NCc3ccc(OC)cc3)CC2)cc1 (configuration not stated),"inconclusive [inhibitor, single point]"
21,CCOC(=O)c1c(NC(=O)COC(=O)c2ccccn2)sc(C(=O)N(C)C)c1C,"inconclusive [inhibitor, single point]"
